# Source: PubChem BioAssay AID1347073 (National Center for Advancing Translational Sciences (NCATS), 2019)
# About 200 (0.44%) of roughly 45,000 compounds were called active. Inconclusive results (about 7%) are left out. The call rests on the fitted dose curve; in most records, active means well fitted activation curve with a large enough effect; inconclusive means small, poorly fitted or top-dose-only effect; inactive means no such curve, though single readings can be large or run the other way. This is one part of the list.
# Experiment: qHTS of TDP-43 Inhibitors: NCGC Sytravon Library Screen; further: 0% is about no effect; nearly all actives have a fitted effect of over 55% in size
# Conditions: yeast TDP-43 toxicity rescue, BacTiter-Glo growth, 24 h; series mostly up to 46.1 µM; growth rescue (activation): at the top concentration
# Outline: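 TDP-43-expressing yeast, pregrown in raffinose, seeded at OD600 0.02 in galactose medium with compound for 24 hr at 30 deg C. Growth read by BacTiter-Glo luminescence, so rescue of toxicity appears as activation.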
row,SMILES,growth rescue (activation)
1,CCC(=O)c1ccc(OC(=O)c2cnccn2)cc1,inactive: -17.7%
2,Cc1noc(C)c1C(=O)NCc1ccccc1Br,inactive: -0.772%
3,CN(CCC#N)C(=O)COC(=O)/C=C/c1ccc2c(c1)OCO2,inactive: 0.288%
4,COc1ccc(N(C(=O)Cn2nnc3ccccc32)C(C(=O)NCc2ccco2)c2ccncc2)cc1 (stereo not given),inactive: 12.3%
5,O=C(CNC(=O)c1cc(Cl)cc([N+](=O)[O-])c1)OCC(=O)N1CCCCC1,inactive: 24.2%
6,COc1cccc(CC(=O)Nc2ncc(C)s2)c1,inactive: 10.9%
7,CC(O)(c1cccc(F)c1)c1nc(-c2cccc(F)c2)cs1 (stereo not given),inactive: -57.8%
8,Cc1cccc2nc(COc3ccc4ccccc4c3Br)cn12,inactive: 1.45%
9,C=CCN(c1ccc(C(=O)Nc2ccc(C)cc2)cc1)S(C)(=O)=O,inactive: 4.2%
10,Cc1cc(N2CCN(Cc3nc(-c4ccc(Cl)cc4)oc3C)CC2)cc(C)n1,inactive: -15.2%
11,Cc1cccc(NC(=O)C2CCN(c3nnc(-n4c(C)ccc4C)s3)CC2)c1C,inactive: 1.22%
12,COc1ccc(NC(=O)CCNS(=O)(=O)c2cccc3nsnc23)cc1,inactive: -2.36%
13,CC(C)Nc1nc(NCCOc2ccccc2Cl)c2sccc2n1,inactive: 11.4%
14,COc1cccc2c1CCc1c-2nc2ccccc2c1C(=O)O,inactive: -2.54%
15,C=CCOc1ccc(CN(C)CC(=O)Nc2ccc3c(c2)CCC3)cc1,inactive: 8.61%
16,COc1ccc(CNC(=O)/C(C#N)=C2\N=C(NC(=O)c3cccs3)c3ccccc32)cc1,inactive: 15.3%
17,Cc1ccc(N2CC(C(=O)N3CCC(C(=O)Nc4nnc(C(C)(C)C)s4)CC3)CC2=O)cc1 (stereo not given),inactive: 10.5%
18,CC[N+](C)(CC)CC(=O)OCC1C(C)C=C(C)CC1C (stereo not given),inactive: 1.26%
19,Cn1cc(CNC(=O)CC2C(=O)NCCN2CC(C)(C)C)cn1 (stereo not given),inactive: 6.09%
20,COCCCn1c(=O)/c(=C\c2ccccc2OC(C)C)s/c1=C(/C#N)C(=O)Nc1ccc(C(=O)O)cc1,inactive: -4.17%
21,Cc1nnc(SC(C(=O)c2ccccc2)c2ccccc2)[nH]c1=O (stereo not given),inactive: 35.4%
22,CC1CCc2c(sc3[nH]c(=S)n(C)c(=O)c23)C1 (stereo not given),inactive: 15.9%
23,COc1ccccc1C(=O)Nc1ccccc1N1CCCCC1,inactive: 13.3%
24,OCCN1CCN(c2ncnc3c2ncn3[C@H]2CN(Cc3ccc(Cl)cc3)C[C@@H](CO)O2)CC1,inactive: 16.7%

row,SMILES,growth rescue (activation)
1,CCOC(=O)CN1C(=O)CSc2ccc(S(=O)(=O)N3CCCC3)cc21,inactive: 14.4%
2,O=S(=O)(c1ccc(Cl)nc1)N1CCCCC1,inactive: 1.38%
3,CC(NC(=O)c1ccc(Br)cc1)C(=O)NC1=NCCS1 (stereo not given),inactive: -3.86%
4,COCC(=O)N(Cc1cc2ccc(C)c(C)c2n2nnnc12)C1CCCC1,inactive: 6.38%
5,CSc1cccc(NCc2ccc([N+](=O)[O-])cc2)c1,inactive: 2.38%
6,CCOC(=O)c1cc(OC)c2cccc(CN3CCCC(C)(C(=O)NCCOC)C3)c2c1 (stereo not given),inactive: 5.57%
7,Cc1ccc(NC(=O)COc2cccc(-n3cnnn3)c2)cc1[N+](=O)[O-],inactive: 10%
8,CN(C)C(CNc1ncnc2sccc12)c1ccccc1 (stereo not given),inactive: -4.35%
9,Cc1nc2ccccc2nc(C)c1=NOCc1ccccc1Cl,inactive: -22%
10,Cc1cccc(NC(=O)Nc2nnc([C@H]3C[C@H](O)[C@@H](CO)O3)s2)c1,inactive: 4.76%
11,COc1ccccc1NC(=O)N1CCC(C(=O)c2ccc(Cl)cc2)CC1,inactive: 22.4%
12,OC[C@@H]1CN(Cc2ccc(F)cc2)C[C@H](n2cnc3c(NCc4ccncc4)ncnc32)O1,inactive: -3.3%
13,CN(C)/C=N/c1sc2c(c1C#N)CCCC2,inactive: 14.1%
14,O=c1cnnc(N/N=C/C2CC=CCC2)[nH]1 (stereo not given),inactive: -0.11%
15,COc1ccc(Nc2nc(NCCCN3CCOCC3)nc(N)c2[N+](=O)[O-])cc1,inactive: 3.7%
16,CCOc1ccc(Nc2nc(N)c3ccccc3n2)cc1,inactive: -80.4%
17,O=C(COC(=O)c1cccnc1Cl)Nc1cccc(S(=O)(=O)N2CCCCC2)c1,inactive: 14.8%
18,CC(=O)N1CCCN(Cc2cn(-c3cc(C)ccc3C)nc2-c2ccccc2)CC1,inactive: -0.093%
19,COC(=O)c1cc(Br)c(=O)n(CC(C)C)c1,inactive: -2.05%
20,CCOC(=O)CNc1cccc(C(F)(F)F)c1,inactive: 12.3%
21,CSc1c(CC(=O)Nc2ccc(F)cc2)n(Cc2ccccc2)c2ccccc12,inactive: 11.3%
22,COc1ccc(CCN2C(=O)CC(Cc3cccc(C)c3)C2=O)cc1OC (stereo not given),inactive: 12.6%
23,Cc1cc(/C=N/NC(N)=S)c(O)c(/C=N/NC(N)=S)c1,inactive: 5.35%
24,CCN(CC)S(=O)(=O)c1ccc(NS(=O)(=O)CC23CCC(CC2=O)C3(C)C)cc1 (stereo not given),inactive: 3.61%

row,SMILES,growth rescue (activation)
1,CCc1nnc(NC(=O)c2ccc(COc3ccccc3Cl)o2)s1,inactive: 14.1%
2,CC(C)(C)c1ccccc1NC(=O)Cn1c(=O)cnc2ccccc21,inactive: 2.49%
3,COc1ccccc1-n1nnnc1SCC(=O)NCC1(N2CCCCC2)CCCCC1,inactive: -6.73%
4,CN=C1SC(CC(=O)NCCc2ccc(OC)c(OC)c2)C(=O)N1C (stereo not given),inactive: 9.41%
5,CC1=NN(c2ccc(Cl)c(C(=O)O)c2)C(=O)/C1=C/c1ccc(-c2ccccc2[N+](=O)[O-])o1,inactive: -8.17%
6,O=C(CNC(=O)COc1ccccc1)NCc1ccccc1F,inactive: -4.64%
7,CC(N=C1CC(C)(C)CC(=O)/C1=C(/O)CCCN1C(=O)c2ccccc2C1=O)C(=O)O (stereo not given),inactive: 9.48%
8,COCCCN(C(=S)Nc1c(C)cc(C)cc1C)C(C)c1ccccn1 (stereo not given),inactive: -2.52%
9,OC[C@@H]1CN(Cc2ccccc2)C[C@H](n2cnc3c(N4CCN(c5ccccc5)CC4)ncnc32)O1,inactive: 6.92%
10,O=C(CN1CCN(c2ccc(Cl)cc2)CC1)NCc1ccccc1,inactive: 4.8%
11,COc1ccc(CNC(=O)CSc2cccc3cccnc23)cc1,inactive: 13.6%
12,CCOC(=O)c1oc2c(c1C)-c1nn(Cc3ccc(Cl)cc3)cc1CC2,inactive: 21.2%
13,Cc1ccc2[nH]c(O)c(N=Nc3ccccc3C)c2c1,inactive: 4.06%
14,Cc1ccnn1C(C)C(=O)O (stereo not given),inactive: 0.891%
15,O=C(NC(=S)Nc1ccccc1Br)c1ccco1,inactive: -2.55%
16,Cc1ccc(N2CC(C(=O)Nc3cc(C)on3)CC2=O)c(C)c1 (stereo not given),inactive: 6.06%
17,CCc1cc2cc(C)cc(C)c2nc1SCC(=O)Nc1cc(C)on1,inactive: -3.44%
18,COc1ccc(CNC(=O)C(C)OC(=O)C23CC4CC(CC(O)(C4)C2)C3)cc1 (stereo not given),inactive: 1.52%
19,O=C(CSc1nncc2ccccc12)Nc1cccc(O)c1,inactive: -37.7%
20,CC(=O)Nc1nnc(CSCc2ccccc2F)s1,inactive: -23%
21,CCCCCn1c(=O)[nH]c2cc(C(=O)N3CCN(c4ccccc4F)CC3)ccc2c1=O,inactive: -7.83%
22,CCOc1ccc(CN(C)C(C)C(=O)Nc2ccc([N+](=O)[O-])cc2Cl)cc1OC (stereo not given),inactive: 13.8%
